Some of the results follow.

The subject of this assay is PF3D7_0420300 AP2 domain 1 (GST-tagged). In words: gcPBM binding intensity (ln(normalized median fluorescence intensity)); higher = stronger DNA binding. An outline of the steps: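 Using an Agilent 4 × 180k array, primer-extended double-stranded 36-bp intergenic genomic probes and negative controls were exposed for 1 h to GST-fused P. falciparum DNA-binding domains expressed in E. coli. Binding was carried out in 1× PBS with 1% milk, 0.2 mg/ml BSA, 0.5% salmon testes DNA and 0.03% Triton X-100, and protein was detected with Alexa488 anti-GST antibody and a 488 nm scan. Binding intensity is the highest Masliner-normalised natural-log median intensity across replicate spots of either probe orientation.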
Turning to “TATTTTATAAATTAATGTACATAAATTATATCTACT [XGTACX_site3625]”, the “gcPBM binding intensity (ln)” value was 9.05.

For “GATCAAAATTATAGAAGTACTTTATATAAATAAAAT [XGTACX_site8161]”, the “gcPBM binding intensity (ln)” value stood at 9.17.

“TATATATATAAGATTGTGCACATTAAAATGATAGAA [GTGCAC_site9621]”: the “gcPBM binding intensity (ln)” value worked out at 9.4.

For the sequence “TCATAAATACATTTTGCATGTAAAATATAGAATACA [TGCATGCA_site755]”, the “gcPBM binding intensity (ln)” value was determined as 9.14.

With “TCTATAAAATATAAAAGTACGTATCAATAATTAAAA [XGTACX_site8469]”, the “gcPBM binding intensity (ln)” value worked out at 9.21.

Consider “ATATATTAAAAGGATTAGGAAAAAATATGATTTATC [TGCATGCA_negctrl_site405]”, for which the “gcPBM binding intensity (ln)” value was 9.27.

Regarding “ATAGAATCTGGTAGCTGTACGAGTCGTAGAGTGTAG [XGTACX_site2016]”, the “gcPBM binding intensity (ln)” value amounted to 9.33.

On to “AAGTAAAAAAAAAAAAGTACATGTTTATATAAATAT [XGTACX_site4741]”, for which the “gcPBM binding intensity (ln)” value came out at 9.35.

With “ATAAATTAACATTAAAGTACATTTTAATAAATATTA [XGTACX_site3647]”, the “gcPBM binding intensity (ln)” value is 8.85.

Consider “ATACATATATATAATACACACATAAATGTAACATTT [CACACA_site3518]”, for which the “gcPBM binding intensity (ln)” value was 9.55.

For the sequence “ATCCCCATAAAAAATACACACAAATATTTATACATA [CACACA_site1001]”, the “gcPBM binding intensity (ln)” value stood at 9.67.

With “AATAATAAAGTGAACACACACATATAATATATATAT [CACACA_site4143]”, the “gcPBM binding intensity (ln)” value came out at 9.81.

On to “ATAATTAAAATGCTCACACACATAAAAAAAAATTAA [CACACA_site2149]”, for which the “gcPBM binding intensity (ln)” value is 9.62.

Regarding “ATAATTTTATCATATATATATATATATAAATACTTA [CACACA_negctrl_site743]”, the “gcPBM binding intensity (ln)” value was 9.09.

Regarding “ATGCTTTTATGCACACGTACAAAAATATTATATAAT [XGTACX_site5589]”, the “gcPBM binding intensity (ln)” value was determined as 9.2.

Consider “AAAAATTGAATTTTTTTTTTTTTTTTGAGAAGGAAA [CACACA_negctrl_site1196]”, for which the “gcPBM binding intensity (ln)” value turned out to be 8.62.

With “AATATTTTTGTCGTTAGTACATAAAAAATAATAATA [XGTACX_site3074]”, the “gcPBM binding intensity (ln)” value was found to be 9.02.

Take “AAAAAAAAAACATACACACATACATACATATATATT [CACACA_site949]”: the “gcPBM binding intensity (ln)” value was 9.91.

Turning to “ATGAAGAATTTATATTGTACCCATTTTTATGTAAAT [XGTACX_site2528]”, the “gcPBM binding intensity (ln)” value is 9.24.

On to CGAAAAAGTGATATAGTGCAAAATTTTCATTTCTCT, for which the “gcPBM binding intensity (ln)” value stood at 9.21.

With “TTGTTATTATATTACGCATGCATCATTTATTTGCAC [TGCATGCA_site525]”, the “gcPBM binding intensity (ln)” value amounted to 9.49.

For the sequence “AAAGGGAATTATGGCTGTACGCATTTTATAAATAGC [XGTACX_site5878]”, the “gcPBM binding intensity (ln)” value was 9.14.

Turning to “TTTTTTTTTCTTCTTTTCAAATTTAAGAAATTATAA [CACACA_negctrl_site18]”, the “gcPBM binding intensity (ln)” value is 8.78.

Regarding “TGCTGTATATTTTTCTGTACACATTTATATATTCCA [XGTACX_site6244]”, the “gcPBM binding intensity (ln)” value stood at 9.67.

For the sequence “AAGAATAAGAAGAAGGATCCCCTTCAAAAAAAAAAA [TGCATGCA_negctrl_site525]”, the “gcPBM binding intensity (ln)” value stood at 8.96.

Consider “TATATAGATATGATAGTGCATTTTTAGAAAACATAA [GTGCAC_site9962]”, for which the “gcPBM binding intensity (ln)” value turned out to be 9.09.

Take “TTATGTAGCTAGCTATAAACTTTTTTTTATTTAAAA [CACACA_negctrl_site1297]”: the “gcPBM binding intensity (ln)” value turned out to be 8.81.

On to “AACAGATAAAAGGGTACACACATATATACAAGTACA [CACACA_site7959]”, for which the “gcPBM binding intensity (ln)” value was determined as 9.9.

“ATATATATATATATATGTACATACTATACAATAATT [XGTACX_site3546]”: the “gcPBM binding intensity (ln)” value amounted to 9.36.

As to “ATTATTATTAAATACACACACATACCTCCATGTTAG [CACACA_site3430]”, the “gcPBM binding intensity (ln)” value turned out to be 9.83.

Regarding “GATATAATTATGTGTACACAATTTTTTTTTTTTTTT [CACACA_site4501]”, the “gcPBM binding intensity (ln)” value was 9.23.

In the case of “AAATAAAGGAAATAAAAAGAAACCAATTTCGAATAT [CACACA_negctrl_site953]”, the “gcPBM binding intensity (ln)” value came to 9.57.

With “TTTATATGTATTAATTGTACACATATAATGTGTTTT [XGTACX_site3064]”, the “gcPBM binding intensity (ln)” value came to 9.28.

With “TTTTTTTTAAAACTATGTACGTAAAAATTGTAGTTT [XGTACX_site2302]”, the “gcPBM binding intensity (ln)” value stood at 8.92.

On to “ATATGTATGTATAATCGTACAAAATTTGGCGATCTT [XGTACX_site8698]”, for which the “gcPBM binding intensity (ln)” value worked out at 9.19.

For “AGAACTTTTAATGGATGTACAGTTATTTTATTATTT [XGTACX_site6226]”, the “gcPBM binding intensity (ln)” value was found to be 9.41.

Take “ATATAGTAAATTGGTAGTACATAAAATGATTTTATG [XGTACX_site4143]”: the “gcPBM binding intensity (ln)” value was found to be 9.26.

AAAAAAGAACGCATAGTGCATATCTAAAAGATTTTT: the “gcPBM binding intensity (ln)” value came to 9.05.

On to “GATAAATTAAGACACACACACATATATTTATTTATA [CACACA_site7789]”, for which the “gcPBM binding intensity (ln)” value turned out to be 10.

Take “TAGTATTAGATATATACACACATATATACCTATAGA [CACACA_site7083]”: the “gcPBM binding intensity (ln)” value stood at 9.49.

For the sequence “TTACGATCATCAATATGTACATATATATATATATAT [XGTACX_site4301]”, the “gcPBM binding intensity (ln)” value was 9.24.

Consider “ATTTTTTTTTTTATAGTGGATCCACATTTGCCATTT [CACACA_negctrl_site1106]”, for which the “gcPBM binding intensity (ln)” value is 9.24.

Consider “TATAAAAAAATATTATAATATATATATATATATATA [XGTACX_negctrl_site41]”, for which the “gcPBM binding intensity (ln)” value was found to be 8.99.

In the case of “AATATTTATATTTACACACACATAATACATCTATGT [CACACA_site4187]”, the “gcPBM binding intensity (ln)” value worked out at 9.91.

Values taken from the supplement of paper PMC11417369.
